In paper PMC9959916:
Where a chain is given by its changes, count along the chain named. These are yes or no findings as the source states them, for the method shown. Binding seen in cells or lysates may run through a third protein. Some entries that bind do so weakly or less than the wild type. Sequences can lack the tags named with a protein.

By UniProt entry, the sequences of proteins in these tests, tags left out.
UniProt Q06609: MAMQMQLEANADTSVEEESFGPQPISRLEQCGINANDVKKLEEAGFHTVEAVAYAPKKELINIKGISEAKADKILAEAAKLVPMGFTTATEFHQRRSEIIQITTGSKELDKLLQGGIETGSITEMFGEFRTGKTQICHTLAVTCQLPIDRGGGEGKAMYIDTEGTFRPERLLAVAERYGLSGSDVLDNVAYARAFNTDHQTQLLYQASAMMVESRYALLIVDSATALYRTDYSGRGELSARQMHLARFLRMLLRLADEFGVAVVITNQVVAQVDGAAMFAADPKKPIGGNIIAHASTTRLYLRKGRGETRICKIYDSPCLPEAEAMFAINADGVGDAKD

Experiments:
Assay in all cases: co-IP; lysates of HeLa cells stably expressing FLAG-HA-NLS-fused canine BRCA2 peptides, Benzonase-treated; FLAG M2 affinity agarose at 4 °C overnight; washed with 20 mM Tris-HCl pH 8.0, 150 mM KCl, 2 mM MgCl2, 10% glycerol; blots for endogenous RAD51 and PP2A-C subunit
[1] = biological target: T1, FLAG-HA-NLS-fused cΔHCR-BRC2 (canine BRCA2 1134–1248 aa) (canine (Canis lupus familiaris)) (UniProt Q8MKI9)
T1 sequence: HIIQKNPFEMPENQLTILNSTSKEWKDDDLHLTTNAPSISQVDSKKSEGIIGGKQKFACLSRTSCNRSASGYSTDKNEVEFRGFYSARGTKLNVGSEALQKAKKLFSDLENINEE

[2] = biological target: T2, FLAG-HA-NLS-fused cHCR-BRC2 (canine BRCA2 1090–1248 aa) (canine (Canis lupus familiaris)) (UniProt Q8MKI9)
T2 sequence: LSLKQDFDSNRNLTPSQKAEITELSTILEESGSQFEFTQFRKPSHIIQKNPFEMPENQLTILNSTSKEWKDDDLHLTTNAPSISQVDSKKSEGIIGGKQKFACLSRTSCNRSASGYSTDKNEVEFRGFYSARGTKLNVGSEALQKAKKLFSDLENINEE

[3] = biological target: T3, FLAG-HA-NLS-fused cBRC1-HCR (canine BRCA2 993–1139 aa) (canine (Canis lupus familiaris)) (UniProt Q8MKI9)
T3 sequence: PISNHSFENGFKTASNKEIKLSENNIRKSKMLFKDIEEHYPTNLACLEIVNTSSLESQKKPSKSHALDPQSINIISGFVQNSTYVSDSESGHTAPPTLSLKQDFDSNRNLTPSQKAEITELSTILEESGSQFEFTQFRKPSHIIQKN

[4] = biological target: T4, FLAG-HA-NLS-fused cBRC1-ΔHCR (canine BRCA2 993–1100 aa) (canine (Canis lupus familiaris)) (UniProt Q8MKI9)
T4 sequence: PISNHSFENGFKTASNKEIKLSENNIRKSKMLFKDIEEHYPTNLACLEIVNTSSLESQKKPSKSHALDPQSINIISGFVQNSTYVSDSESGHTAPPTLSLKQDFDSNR

[5] = biological target: T5, FLAG-HA-NLS-fused cBRC1-HCR-BRC2 (canine BRCA2 993–1248 aa) (canine (Canis lupus familiaris)) (UniProt Q8MKI9)
T5 sequence: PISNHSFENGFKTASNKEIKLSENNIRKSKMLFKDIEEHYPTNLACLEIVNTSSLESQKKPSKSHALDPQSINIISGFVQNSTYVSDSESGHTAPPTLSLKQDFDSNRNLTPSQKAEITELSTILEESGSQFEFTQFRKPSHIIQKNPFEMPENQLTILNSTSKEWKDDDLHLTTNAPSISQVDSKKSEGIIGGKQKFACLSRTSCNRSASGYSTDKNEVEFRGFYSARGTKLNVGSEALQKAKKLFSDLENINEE

[6] = biological target: T6, FLAG-HA-NLS-fused cBRC1-HCR-BRC2 S1114P (canine (Canis lupus familiaris)) (UniProt Q8MKI9)
T6 sequence: T5 sequence with S122P

[7] = biological target: T7, FLAG-HA-NLS-fused cBRC1-ΔHCR-BRC2 (canine BRCA2 993–1248 aa deleted with 1101–1133 aa) (canine (Canis lupus familiaris)) (UniProt Q8MKI9)
T7 sequence: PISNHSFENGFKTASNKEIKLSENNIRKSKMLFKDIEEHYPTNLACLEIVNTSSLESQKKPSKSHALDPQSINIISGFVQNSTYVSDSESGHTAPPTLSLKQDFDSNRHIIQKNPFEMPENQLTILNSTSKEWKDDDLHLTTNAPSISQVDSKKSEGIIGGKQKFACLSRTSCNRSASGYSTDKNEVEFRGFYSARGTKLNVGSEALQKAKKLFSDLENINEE

[8] = biological target: T8, FLAG-HA-NLS-fused cBRC1-HCR-BRC2 I1110M (canine (Canis lupus familiaris)) (UniProt Q8MKI9)
T8 sequence: T5 sequence with I118M

[9] = biological target: T9, FLAG-HA-NLS-fused cBRC1-HCR-BRC2 T1115P (canine (Canis lupus familiaris)) (UniProt Q8MKI9)
T9 sequence: T5 sequence with T123P

Measured: binding

endogenous RAD51 (HeLa cells) (from UniProt Q06609 1-339)
binds: all assays above
